{"source": "the supplement of paper PMC11417369", "note": "The other results are listed elsewhere or left out."}
{"tested_on": "PfAP2-HC AP2 domain (GST-tagged)", "test": "gcPBM binding intensity (ln(normalized median fluorescence intensity)); higher = stronger DNA binding", "outline": "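GST-fused DNA-binding domains of P. falciparum, expressed in E. coli, were applied at about 25 μg on average for 1 h to an Agilent 4 × 180k array of primer-extended double-stranded 36-bp intergenic genomic probes and negative controls. Binding intensity is the highest Masliner-normalised natural-log median intensity across replicate spots of either probe orientation, measured with Alexa488 anti-GST antibody and a 488 nm scan.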"}
{"sequence": "TAAATGTTTCTCAAAAGTACACATGTGATATTTCTT [XGTACX_site2065]", "gcPBM binding intensity (ln)": 9.65}
{"sequence": "TTAAAAATATTATGTACACACATTTTAGATATTTGT [CACACA_site1846]", "gcPBM binding intensity (ln)": 9.91}
{"sequence": "TAAATATATATATATTGTACAAAACAAATGTGAATT [XGTACX_site696]", "gcPBM binding intensity (ln)": 9.79}
{"sequence": "TCCTAATATTTGTCAAATTTCAAAATAAATAAAATG [XGTACX_negctrl_site540]", "gcPBM binding intensity (ln)": 9.27}
{"sequence": "TAATTAAAATCATATACACACCCATATATATATATA [CACACA_site8524]", "gcPBM binding intensity (ln)": 10}
{"sequence": "ATATAGTAAATGTTCACACATACAAATATATATATA [CACACA_site5518]", "gcPBM binding intensity (ln)": 9.73}
{"sequence": "AAGTTTTCTTAAAGCTGTACTTTTTAAAAATAAAAT [XGTACX_site7716]", "gcPBM binding intensity (ln)": 9.13}
{"sequence": "TACAAATATAGATGCACACACATATAGGTATATGTG [CACACA_site7439]", "gcPBM binding intensity (ln)": 10.4}
{"sequence": "TATATATAATTATAAGAACACACATATATATATATA [CACACA_site8786]", "gcPBM binding intensity (ln)": 9.8}
{"sequence": "AATGATACTTAGGGGCATGTCTCTGGGGGCATAACC [CACACA_negctrl_site591]", "gcPBM binding intensity (ln)": 9.53}
{"sequence": "ATATATTTCTGTCAAGCACACATAATATTAATATAT [CACACA_site7993]", "gcPBM binding intensity (ln)": 9.97}
{"sequence": "CATATTATATTTTCATGTACACATAACATATTTATA [XGTACX_site4787]", "gcPBM binding intensity (ln)": 9.69}
{"sequence": "GTTATAAACAAAATAAATATATGAATATATAATAAT [XGTACX_negctrl_site96]", "gcPBM binding intensity (ln)": 9.71}
{"sequence": "CACATACATATATACACACACAAAATAATAAAATAA [CACACA_site2308]", "gcPBM binding intensity (ln)": 10.4}
{"sequence": "AAAATTATATTTTATAGAAATTTAAATAAATATATA [GTGCAC_negctrl_site199]", "gcPBM binding intensity (ln)": 9.4}
{"sequence": "TTTTTAAAAATAACAGAAAAGAATTACAGATTTTTT [XGTACX_negctrl_site472]", "gcPBM binding intensity (ln)": 9.41}
{"sequence": "TTTTCTTGATTTTGTAGTACATTTTTACGATATTTT [XGTACX_site63]", "gcPBM binding intensity (ln)": 9.91}
{"sequence": "ATGTAAATTATTATTCTATTGTTATATACACAATAT [XGTACX_negctrl_site332]", "gcPBM binding intensity (ln)": 9.75}
{"sequence": "ATATAGTTCGTTTATACACACATGATAAGATATTTA [CACACA_site1947]", "gcPBM binding intensity (ln)": 9.69}
{"sequence": "AAATCACTTTTTAAGTGTACTTGGTCTTTCTCATTT [XGTACX_site7221]", "gcPBM binding intensity (ln)": 9.68}
{"sequence": "TTTTTTACATCCATAAAACTTTTTCTCTTTTAAAAT [CACACA_negctrl_site1745]", "gcPBM binding intensity (ln)": 9.43}
{"sequence": "AGAGAGAAAGGTATAACATGCGATAAATTTTAGAAG [TGCATGCA_site37]", "gcPBM binding intensity (ln)": 9.68}
{"sequence": "TGTATTAATATGGTAATACACACTAATATACTTTTG [CACACA_site1610]", "gcPBM binding intensity (ln)": 9.72}
{"sequence": "TGTAGAATTTCCTGAACATGCAAATAATTTTCCTTA [TGCATGCA_site881]", "gcPBM binding intensity (ln)": 9.42}
{"sequence": "AAAAAATTGAAGGAGTGTACATTTATACTTTATTTT [XGTACX_site8623]", "gcPBM binding intensity (ln)": 9.63}
{"sequence": "TGTTATTCGACATATACACACAAATAACAATTTAAA [CACACA_site5076]", "gcPBM binding intensity (ln)": 9.73}
{"sequence": "AACATAATAAAAATGGATATAATTCAAAGTTTGTAA [TGCATGCA_negctrl_site529]", "gcPBM binding intensity (ln)": 9.76}
{"sequence": "AGGTCTGTTTTATATTGTACATAAAAAGTGCACATG [XGTACX_site4529]", "gcPBM binding intensity (ln)": 9.63}
{"sequence": "TAATTATAAATTATAGTGCATAAAATTGTAGCATAA", "gcPBM binding intensity (ln)": 9.65}
{"sequence": "AAAATATGATATGAAAAATTTGTTATATATACATAA [CACACA_negctrl_site1529]", "gcPBM binding intensity (ln)": 9.62}
{"sequence": "GACATTTGTGAGCTTGAGCCGTCAAACCACTAAATA [CACACA_negctrl_site552]", "gcPBM binding intensity (ln)": 9.33}
{"sequence": "CATATTCCAAGAATGTGTACATAATTTTTTTTTTTT [XGTACX_site4310]", "gcPBM binding intensity (ln)": 9.52}
{"sequence": "CTCATAATTTCTGAACGTACGTATTTCTCATTTTTA [XGTACX_site7296]", "gcPBM binding intensity (ln)": 9.69}
{"sequence": "TTCTATAAGTATAAATGTACAAAAAAAACATCATTC [XGTACX_site5450]", "gcPBM binding intensity (ln)": 9.68}
{"sequence": "ATAATTCTAAATAAATGTACACACAAAAATAAATGT [XGTACX_site3547]", "gcPBM binding intensity (ln)": 9.91}
{"sequence": "ATTGTATGCACGTCTGCACACTTTTTTTTTTTTTTT [CACACA_site2082]", "gcPBM binding intensity (ln)": 9.79}
{"sequence": "TAACGCATGAATATAATATATATATATATAAAAATA [GTGCAC_negctrl_site218]", "gcPBM binding intensity (ln)": 9.65}
{"sequence": "GTTAATTGAAGATTCACACATAAATATATATATAAT [CACACA_site5482]", "gcPBM binding intensity (ln)": 9.61}
{"sequence": "TATAGATGTATGTACATACACACATATATAAATAAA [CACACA_site1789]", "gcPBM binding intensity (ln)": 10}
{"sequence": "TGTTAATTTATATTATGTACTTATAATTATCGTTTG [XGTACX_site1032]", "gcPBM binding intensity (ln)": 9.74}
{"sequence": "AACTTTATACTTTTTTGTACTTAACCCTTACATTTT [XGTACX_site5798]", "gcPBM binding intensity (ln)": 10.3}
{"sequence": "TTTATATATTTATTCACACATATAATATTCCGTCGT [CACACA_site6120]", "gcPBM binding intensity (ln)": 9.66}
{"sequence": "AACATACATAAACACACACACACACCCACACCCACA [CACACA_site8058]", "gcPBM binding intensity (ln)": 10.8}
{"sequence": "TTTATGAAACAGTGCACACATAAAAATATATACATA [CACACA_site2992]", "gcPBM binding intensity (ln)": 9.79}
{"sequence": "TAGATAAATGGGTATACACACATATACATAAATATA [CACACA_site375]", "gcPBM binding intensity (ln)": 9.93}
